Results as given in the supplement of paper PMC8728848.
Some of the results follow.

Assays:
Experiment in all cases: glycan array binding signal (z-score within array); higher = stronger binding
Conditions in all cases: glycan notation: IUPAC condensed, linker removed
Fuc(a1-2)Gal = molecular target: Fuc(a1-2)Gal
In short: (§1)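 Glycan array data came from 3228 arrays in the Consortium for Functional Glycomics database, and only arrays with an available protein sequence were kept. Glycan names were put into IUPAC-condensed notation, and columns mapping to the same glycan were averaged. The binding signal is a within-array Z-score, averaged across arrays of one protein sequence run at different concentrations or buffers and across linkers. A negative Z-score can be read as non-binding.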

Fuc(a1-2)Gal(b1-3)GalNAc = molecular target: Fuc(a1-2)Gal(b1-3)GalNAc
In short: as §1

[1] = molecular target: Fuc(a1-2)Gal(b1-3)GalNAc(a1-3)[Fuc(a1-2)]Gal(b1-4)Glc
In short: as §1

[2] = molecular target: Fuc(a1-2)Gal(b1-3)GalNAc(a1-3)[Fuc(a1-2)]Gal(b1-4)GlcNAc
In short: as §1

[3] = molecular target: Fuc(a1-2)Gal(b1-3)GalNAc(b1-3)Gal
In short: as §1

[4] = molecular target: Fuc(a1-2)Gal(b1-3)GalNAc(b1-3)Gal(a1-4)Gal(b1-4)Glc
In short: as §1

[5] = molecular target: Fuc(a1-2)Gal(b1-3)GalNAc(b1-4)[Neu5Ac(a2-3)]Gal(b1-4)Glc
In short: as §1

Fuc(a1-2)Gal(b1-3)GlcNAc = molecular target: Fuc(a1-2)Gal(b1-3)GlcNAc
In short: as §1

[6] = molecular target: Fuc(a1-2)Gal(b1-3)GlcNAc(b1-2)Man(a1-3)[Fuc(a1-2)Gal(b1-3)GlcNAc(b1-2)Man(a1-6)]Man(b1-4)GlcNAc(b1-4)GlcNAc
In short: as §1

[7] = molecular target: Fuc(a1-2)Gal(b1-3)GlcNAc(b1-2)Man(a1-3)[Fuc(a1-2)Gal(b1-3)GlcNAc(b1-2)Man(a1-6)]Man(b1-4)GlcNAc(b1-4)[Fuc(a1-6)]GlcNAc
In short: as §1

[8] = molecular target: Fuc(a1-2)Gal(b1-3)GlcNAc(b1-3)Gal(b1-4)Glc
In short: as §1

[9] = molecular target: Fuc(a1-2)Gal(b1-3)GlcNAc(b1-3)GalNAc
In short: as §1

[10] = molecular target: Fuc(a1-2)Gal(b1-3)GlcNAc(b1-3)[Fuc(a1-3)[Gal(b1-4)]GlcNAc(b1-6)]Gal(b1-4)Glc
In short: as §1

[11] = molecular target: Fuc(a1-2)Gal(b1-3)GlcNAc(b1-3)[Gal(b1-4)GlcNAc(b1-6)]Gal(b1-4)Glc
In short: as §1

[12] = molecular target: Fuc(a1-2)Gal(b1-3)GlcNAc(b1-3)[Neu5Ac(a2-6)Gal(b1-4)GlcNAc(b1-6)]Gal(b1-4)Glc
In short: as §1

[13] = molecular target: Fuc(a1-2)Gal(b1-3)[Fuc(a1-4)]GlcNAc
In short: as §1

[14] = molecular target: Fuc(a1-2)Gal(b1-3)[Fuc(a1-4)]GlcNAc(b1-2)Man(a1-3)[Fuc(a1-2)Gal(b1-3)[Fuc(a1-4)]GlcNAc(b1-2)Man(a1-6)]Man(b1-4)GlcNAc(b1-4)GlcNAc
In short: as §1

[15] = molecular target: Fuc(a1-2)Gal(b1-3)[Fuc(a1-4)]GlcNAc(b1-3)[Fuc(a1-3)[Gal(b1-4)]GlcNAc(b1-6)]Gal(b1-4)Glc
In short: as §1

[16] = molecular target: Fuc(a1-2)Gal(b1-3)[Fuc(a1-4)]GlcNAc(b1-3)[Gal(b1-4)GlcNAc(b1-6)]Gal(b1-4)Glc
In short: as §1

Fuc(a1-2)Gal(b1-4)Glc = molecular target: Fuc(a1-2)Gal(b1-4)Glc
In short: as §1

Fuc(a1-2)Gal(b1-4)Glc6S = molecular target: Fuc(a1-2)Gal(b1-4)Glc6S
In short: as §1

Fuc(a1-2)Gal(b1-4)GlcNAc = molecular target: Fuc(a1-2)Gal(b1-4)GlcNAc
In short: as §1

[17] = molecular target: Fuc(a1-2)Gal(b1-4)GlcNAc(b1-2)Man(a1-3)[Fuc(a1-2)Gal(b1-4)GlcNAc(b1-2)Man(a1-6)]Man(b1-4)GlcNAc(b1-4)GlcNAc
In short: as §1

[18] = molecular target: Fuc(a1-2)Gal(b1-4)GlcNAc(b1-2)Man(a1-3)[Fuc(a1-2)Gal(b1-4)GlcNAc(b1-2)Man(a1-6)]Man(b1-4)GlcNAc(b1-4)[Fuc(a1-6)]GlcNAc
In short: as §1

[19] = molecular target: Fuc(a1-2)Gal(b1-4)GlcNAc(b1-2)[Fuc(a1-2)Gal(b1-4)GlcNAc(b1-4)]Man(a1-3)[Fuc(a1-2)Gal(b1-4)GlcNAc(b1-2)Man(a1-6)]Man(b1-4)GlcNAc(b1-4)GlcNAc
In short: as §1

[20] = molecular target: Fuc(a1-2)Gal(b1-4)GlcNAc(b1-3)Gal(b1-4)GlcNAc
In short: as §1

[21] = molecular target: Fuc(a1-2)Gal(b1-4)GlcNAc(b1-3)Gal(b1-4)GlcNAc(b1-3)Gal(b1-4)GlcNAc
In short: as §1

[22] = molecular target: Fuc(a1-2)Gal(b1-4)GlcNAc(b1-3)GalNAc
In short: as §1

[23] = molecular target: Fuc(a1-2)Gal(b1-4)GlcNAc(b1-3)[Fuc(a1-2)Gal(b1-4)GlcNAc(b1-6)]GalNAc
In short: as §1

[24] = molecular target: Fuc(a1-2)Gal(b1-4)GlcNAc6S
In short: as §1

B1: ConA (Canavalia ensiformis), P02866 (protein)
chain: MAISKKSSLFLPIFTFITMFLMVVNKVSSSTHETNALHFMFNQFSKDQKDLILQGDATTGTDGNLELTRVSSNGSPQGSSVGRALFYAPVHIWESSAVVASFEATFTFLIKSPDSHPADGIAFFISNIDSSIPSGSTGRLLGLFPDANVIRNSTTIDFNAAYNADTIVAVELDTYPNTDIGDPSYPHIGIDIKSVRSKKTAKWNMQNGKVGTAHIIYNSVDKRLSAVVSYPNADSATVSYDVDLDNVLPEWVRVGLSASTGLYKETNTILSWSFTSKLKSNEIPDIATVV
Fuc(a1-2)Gal
  glycan array binding signal (z-score): -0.274
Fuc(a1-2)Gal(b1-3)GalNAc
  glycan array binding signal (z-score): -0.261
[1]
  glycan array binding signal (z-score): -0.17
[2]
  glycan array binding signal (z-score): -0.214
[3]
  glycan array binding signal (z-score): -0.288
[4]
  glycan array binding signal (z-score): -0.286
[5]
  glycan array binding signal (z-score): -0.261
Fuc(a1-2)Gal(b1-3)GlcNAc
  glycan array binding signal (z-score): -0.286
[6]
  glycan array binding signal (z-score): -0.103
[7]
  glycan array binding signal (z-score): -0.028
[8]
  glycan array binding signal (z-score): -0.263
[9]
  glycan array binding signal (z-score): -0.158
[10]
  glycan array binding signal (z-score): -0.244
[11]
  glycan array binding signal (z-score): -0.259
[12]
  glycan array binding signal (z-score): -0.189
[13]
  glycan array binding signal (z-score): -0.294
[14]
  glycan array binding signal (z-score): 0.032
[15]
  glycan array binding signal (z-score): -0.22
[16]
  glycan array binding signal (z-score): -0.225
Fuc(a1-2)Gal(b1-4)Glc
  glycan array binding signal (z-score): -0.3
Fuc(a1-2)Gal(b1-4)Glc6S
  glycan array binding signal (z-score): -0.185
Fuc(a1-2)Gal(b1-4)GlcNAc
  glycan array binding signal (z-score): -0.303
[17]
  glycan array binding signal (z-score): -0.207
[18]
  glycan array binding signal (z-score): -0.098
[19]
  glycan array binding signal (z-score): -0.138
[20]
  glycan array binding signal (z-score): -0.229
[21]
  glycan array binding signal (z-score): -0.221
[22]
  glycan array binding signal (z-score): -0.078
[23]
  glycan array binding signal (z-score): -0.139
[24]
  glycan array binding signal (z-score): -0.217
